Measured values as given in patent US20110044980A1 (AbbVie / Abbott, published 2011).

Assays:
NKG2D [1] = biological target: T1, NKG2D (human, UniProt P26718 1-216); assay: flow cytometry (FACSCanto), cells carrying the target (line not given), 2 ug/mL
T1 construct: whole, on cells; also called NKGD
T1 sequence (looked up): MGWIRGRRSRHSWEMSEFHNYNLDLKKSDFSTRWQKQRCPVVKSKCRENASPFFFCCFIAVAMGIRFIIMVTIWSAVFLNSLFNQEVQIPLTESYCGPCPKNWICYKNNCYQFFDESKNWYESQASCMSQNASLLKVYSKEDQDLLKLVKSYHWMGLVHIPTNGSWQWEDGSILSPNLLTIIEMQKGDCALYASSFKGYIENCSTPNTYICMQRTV

NKG2D [2] = biological target: T1, NKG2D; assay: flow cytometry (FACSCalibur), activated NK cells, 10 ug/ml, R-PE GMFI on CD56+ live cells

B1: DVD1060 (bispecific antibody)
VH: QVQLVESGGGLVKPGGSLRLSCAASGFTFSSYGMHWVRQAPGKGLEWVAFIRYDGSNKYYADSVKGRFTISRDNSKNTLYLQMNSLRAEDTAVYYCAKDRGLGDGTYFDYWGQGTTVTVSSASTKGPSVFPLAP[letters of about 120 residues not shown]
VL: QSALTQPASVSGSPGQSITISCSGSSSNIGNNAVNWYQQLPGKAPKLLIYYDDLLPSGVSDRFSGSKSGTSAFLAISGLQSEDEADYYCAAWDDSLNGPVFGGGTKLTVLGQPKAAPSVTLFPP[letters of about 100 residues not shown]
notes: also called DVD1060H + DVD1060L
FACS Geometric Mean N-terminal (NKG2D [1]): 299 | FACS Geometric Mean N-terminal (NKG2D [2]): 28.9

B2: DVD1061 (bispecific antibody)
VH: [letters of about 120 residues not shown]ASTKGPSVFPLAPQVQLVESGGGLVKPGGSLRLSCAASGFTFSSYGMHWVRQAPGKGLEWVAFIRYDGSNKYYADSVKGRFTISRDNSKNTLYLQMNSLRAEDTAVYYCAKDRGLGDGTYFDYWGQGTTVTVSS
VL: [letters of about 100 residues not shown]RTVAAPSVFIFPPQSALTQPASVSGSPGQSITISCSGSSSNIGNNAVNWYQQLPGKAPKLLIYYDDLLPSGVSDRFSGSKSGTSAFLAISGLQSEDEADYYCAAWDDSLNGPVFGGGTKLTVLG
notes: also called DVD1061H + DVD1061L
FACS Geometric Mean C-terminal (NKG2D [1]): 220 | FACS Geometric Mean C-terminal (NKG2D [2]): 29.2
